In article PMC10726135:
This is one part of the list. At the low end of the ranking, values are background and their order means little. Measured with an extract: partners may take part in the binding.

The sequences below were run against T1, HNF4alpha2 (COS-7 nuclear extract) (UniProt P41235) (assay: protein-binding microarray). Conditions: COS-7 nuclear extract on double-stranded Agilent 4x180k PBM; binding buffer, salt, pH and temperature not given; high values mean tight binding; double strand, one strand shown; sequences stand for … in …GCCTAGGGAGATTAGAGTATCGGTCGA.
T1 sequence: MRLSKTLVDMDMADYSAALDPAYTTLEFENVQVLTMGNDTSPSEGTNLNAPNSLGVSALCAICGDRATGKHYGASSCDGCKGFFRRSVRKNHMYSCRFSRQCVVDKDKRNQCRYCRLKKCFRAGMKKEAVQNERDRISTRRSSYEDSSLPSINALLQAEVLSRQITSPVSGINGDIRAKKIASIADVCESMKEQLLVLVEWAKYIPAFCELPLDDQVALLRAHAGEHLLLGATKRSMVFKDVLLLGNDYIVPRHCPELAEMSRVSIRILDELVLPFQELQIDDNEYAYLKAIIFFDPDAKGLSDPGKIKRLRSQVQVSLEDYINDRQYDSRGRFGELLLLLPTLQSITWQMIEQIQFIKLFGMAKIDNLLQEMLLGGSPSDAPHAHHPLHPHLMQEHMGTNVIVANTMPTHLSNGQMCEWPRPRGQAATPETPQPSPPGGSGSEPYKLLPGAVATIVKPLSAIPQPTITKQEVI

Sequence | binding signal (log2 normalized intensity)
GTGGGAGAAAGCTTTGGACTTTGGGCTGTG | 5.72
AAGAATGGGCAGAAGTAGGATAAGGGTAGG | -1.08
GGAATTTGGACTTCAGCCCAGGCTGATTAT | 3.75
GGAAGTCCAACCTTTGCTCACTTGGGGGTG | 2.59
TGGTCAAGGGTCAGTTTCTGAGAGTGGCAA | 2.22
CCAATCTAGCAAAAATCCTGCCAAACCAGT | -1.16
ACATACAGGGTCTAGCAGTGCAGCGGGGTC | 2.23
CTAGCAATAACCACAAGGGGGGAGCACCTC | -0.927
TAATTGCATTCTTTGATGTGCTGGGAGTCA | 0.736
TCCTTTTATCTTACATGCCTTATCTGGTTC | 2
ATCAAGGACTGGGCTGGAACACAAAGAAAG | -1.17
GAGGTGACCCCAGGGCAAAGTGCATTGGAG | 3.81
GCCAAAGGTCAGAGTTGAACCCTTGGGGCT | 3.69
GCCAGAGAGATGTCAGCCCAAGATAACCTC | -1.09
AGGCAGGCAGCTTCCAGGTGACAGTTAGGT | -0.703
AGGCCGGTTGGCCAGGTTCCTCCACCGTCA | -1.05
ATTGATATCACCCTCCCTATCAGCTACTCA | 1.48
TGAAAGTCTAAAGTTCAGTGAGATTAGGAA | 3.46
TGTTATAGCTTTTAAAGAACTGGGCGAGCC | -0.887
TGCTCCACCTTTGAAATCTCAAATAGCTGG | -0.982
ACTGGTAACTAGGTTAATGTGAACAGACAG | 0.738
CTGGGCCAAAGGGCATTCTGGAGTTTGGAA | 2.97
GCCAAGGTACCCTGGCTTGTAATTCAAGAC | -0.599
GAAGATAAAGTGTCTCCCTCTGCAGCAAAG | -1.14
AGGTCAGGGAGTAGGTTTGATTTGTGAAAG | 0.942

Sequence | binding signal (log2 normalized intensity)
AACAAAATAATAGTTGACCTTTGAGAACCT | 4.28
TACTGGGGGCCACCATATGTATGTGAAGCT | -1.17
GCTCAGCGGTTACTTCGAGTACATTGTAAC | 1.1
TTCCCACATTGCTCTCCCATAAGAATCCTT | 0.731
GCGGATCCAACCTGTTCTTTTGAGCTGTGG | 0.848
GTCTAGATGCTGGGCAGCTTGTGTGCGTTT | 1.56
GGTGGTGAAAGTCAACAAGATTCCTTGAGC | -0.969
GCAAAGGTCAGGAGTTCCATTTAGCTTCAG | 0.288
TCAACCCCCACTTCCTGACTTGGCCTGAAC | 2.98
CCGAGGTCCTGGGGCGATGCTTCCAAAGTC | -1.07
TTTGATAGGTGGTCTGTTTGTGAAACAGTG | 1.96
TCGCCGTGTGACTGAGGGCTGACATGTCTT | 0.213
TCATTATCTTCAGTCTAGAATCTGCAGCCC | 0.566
ACTCTGGGGCAATAACCCTAGACACCGGGT | -1.07
GGTTGGCACGCTTAGGGAACAAAGGTCAGT | 6.44
AGCTCTAAACCACCCAATCCTGCAGCATTC | -1.09
ACATTTCAGTATGAATGCCTTGGCCTCTGC | 1.11
TGGCTGGCGGCTAGTGTACAGGTGACCTTT | 7.2
TCTAGATGGGGTTGAGCAGACTAAAGGACT | -1.06
GAGTTTAGAATTTGAACTATGGTCATCTGA | 2.69
TGCTAATGTCCTTTGGAGTGCTTTCATCTT | 1.06
GTGGGTGGGAAAGGGTGCTCCAGGCAAAGG | 0.0353
GTGGAGGCCAGCGCCAGGCTGGGGGCAGAG | -1.19
GTCTGCCTGACTCCAGAGTCCAAACTGGGA | 2.17
GCAGAGTCCTGGGGAGGGTAAGCATGCTTG | -0.984

Sequence | binding signal (log2 normalized intensity)
CACTGCAAATGATGTCTCTCATTGGAATGA | 0.955
TGTTCCTCTGCCCCTCATCGAGGCCATCCC | 2.33
GGGTAAAACCAAACTGCAGCTGCTGCACTG | -1.03
GGTGACCCCTCAGTTTTTCTCTTTTGACCT | 4.09
TACTGACTAAAGGTTAAACATGTACTCTGT | 2.36
CTGCACACACTCACAGAACACAGTGTTTGC | -0.755
TCCTGGCAGTGTGGAAAAGCTGGCTGGCGG | -0.741
GAGCTGGCGGCGCGGCCGGAGCGGCGGACC | -1.12
TCCAACCTGTTCTTTTGAGCTGTGGTTAAG | 1.67
GAACCGTGATTATCATCTTTTACTTAGCAA | -1.24
TTAAGTTGACTCCAATGCTCGTTGACCATT | 1.17
AGTATCCAGCTCCTCTTCACACCATGCTCT | -0.739
ACCCTCTCTGGATGCAGGTCGCCGGGAAAA | 0.448
CATCGGACTTTGATCTGCCACATACCTTTA | 4.28
CGCTCCCAGAAGCCTCCGGTGTACCTCGCT | -1.12
TTACTCATTCCCAGGTCGGGCCGGAGAGGC | 0.451
TCCTATCCTAGGGTTAAAGTCTACAACCAG | 3.09
TGAGACTTCCCAGCTGCTGGTCAAAGGGCA | 5.16
GGGCTATTGACAAAGACCAGTGCTCTTTCT | -1.11
ACCAAAACACTTGTGTCAACCGTGTCAACA | -1.09
GGACTTTTTTTTGCCTAACTGCTGCATGTC | -1.02
TATGAAATCTTATCAGAAGCTTACATATCA | -0.937
GGAGTGACCCTGGGAGCAAAGGTCAAGAGT | 6.55
CCGCACCCAGCTTTCATCTCGGCTGGCTAC | -1.15
TACCATGGGAGACCTCAGGGGTCATCAGAT | 2.49

Sequence | binding signal (log2 normalized intensity)
AAAGTCCACCGTGGTGTAGAGGCCCTGCAG | -1.22
TTGTAGCCAAACTCACAGCTTTTATGTCAA | -0.888
TACTAACTGGACTTTATCTACCATTAGTCT | 1.48
GCCTTTCTAGAACCAGAATTCCAGAGAAGC | -1.15
GCCTGCTTTCCACTCCCATTACTTCTGTTT | 0.993
GAAGGAGAGAGAGGGAGAGTGGCCTTTGGA | 2.89
CAGGCAGACTGGCTCCGCTGCTGCAGAGCA | -0.954
GAGTACTGTCTCTTATCAGCCATCTCCCCA | 3.2
GCCACGCACACCTGGATCTTCCAGGCCTCC | -1.16
CTGAGGTATTTTTGCAATCCTCCACTCTCC | -0.598
GGTGTACAAGGAGTCTCCACTATGACCTGT | 2.66
AGGGAATGAAGCTAAAAGAAGTCCAAGGAC | -0.977
GACAAAGTTCTGTCCTTTGTCCCCCACCTG | 4.72
CAAGCGTCAGTCATACAGAGCTGTCACGCA | -1.09
AGGGAGGTAAAAGTCCAACAGGGTTAAAAG | 2.23
AGCCACCGCGCCCCGCCCCCAGTGCACCTT | 5.11
CTTCTGTTCAGGAGTTGTCTGTCCAGTTCA | 1.56
GGGAGATAAGGTGGAAAGACAAGTTGAAGC | -1.01
AACAAAAGCAGAGGAGTGGCCATGATGCCA | -1.28
GGGCAGGTGAGAGGGCTCTGTCTGCTGGGC | -1.08
GGGCAAAGTCAGGTACTGGTAGCCTGGGCC | -0.982
GCCCAAAGGTCACCTCTTCAGATAGCCTTT | 2.91
CAGGCCATCACACTCCTACCCATTCTTCAG | -1.14
GTATACTATTTGCTAATGTCCTTTGGAGTG | 2.12
ACCTTTTGGACCACAGAGTGACCTGGTATT | 2.53

Sequence | binding signal (log2 normalized intensity)
CTCTCAGGTCAAAGTTTGCCTTGACCTCTA | 4.34
CTGTTGGTGACTGACCCTGATCCCTCCCTG | 3.18
GATTCCCCAATGCAGTACTATGCAATAACC | 0.881
GGAATATTGCCCCCTAATGGTATTTATTTT | 2.7
GAACTGTAACCTCAAAGGAGGTCAGAACTG | 0.393
GGACGAAGGTCACTAATTGGAAGCTCTTTC | 1.27
TGCCTGGCATCTAACCTTCGTCCTTGCCCC | 3.82
AAGAAGGCAGACTCAAGATAGAGGGCTGCC | -1.14
GTGTTCGCCCCTAGGACACGCAGTTGGAGA | -1.03
AAGGTTATTTGCTCACCAGTGACCAATAAT | 0.552
CAAGCCTAGTTTTGATTATCACTACTCCTC | -0.851
CACAGCTCGACCTTTGACCTTCGGCTTCCC | 8.84
TGCCCTCTGGTGGCACACAGAGGACGTCAG | -0.0234
AAAAGCCCTAGTTTTTCTTCCGGTCACATA | 1.19
ACCAAAACCAAGATAGTGACGGAGGTGACC | 1.18
ATTCCTGGGAACTGCGGACATAGCTTGCCA | -1.15
ATTTGGAAGTAAGAACCCCACTATTCAGGA | 1.98
GCAAGGAAATAAAAGAGCCTGAGCCACTTC | -1.12
TCAACAAGACCCTGCCCTTTCCCCCGCCCT | 4.89
CCTCTGCCTTTCAGGCAGGAGACGATGGTT | -0.828
CTGACAGAACTAAGCTGTTGCGTAAGGGTC | 1.51
GCAAGATCTCACAGATTAAGTCACGTGGAG | 0.448
TTAAAAAGCAAACAAAACACGGACTTTGAA | 4.06
AGGTCACTTTACAGATAAAGAAACCATAGA | -1.2
CTGCCCTTCTGACCTCCCAGGGATACTGTG | 2.47

Sequence | binding signal (log2 normalized intensity)
CTCCTAAGCAGGACAGCAGAGTGGAGGCCA | -1.2
ACATTCTTCCATATAACCCTTGAACCTTCT | 4.97
AACAGGCAGAAGAATGGATGAGCTAATCAG | -1.09
TAGTGCATAGTGGGTTTCGGTGTCATCTAG | 1.41
GCAGTTTGTCAAGTGCCCGGATAAACTTCC | -1.14
CTAAGCACCTCTGCTTATCTCAACTGATTT | -1.13
AGCTTTTTGTTTGTGTAAGTGTGGGTTTAA | 2.06
GTCACTCCTTCCTCAAGACCCTTTACTGCC | 2.2
TCTCTGGAGGTCACTGCTGGTGGGTGGGGG | 0.804
TGGAGTGCACTGTGATCTTTAGAAAATACT | -0.194
CAGGGATCAAATCCTAACATGCTGCAGGCA | -0.931
CCAAACAATGCAAGAGAGGTCACAACAGAA | -0.621
CCCCACCATTGTTATCTGATCAAATTCCAC | 2.47
CAAAGTCCTCCAACTGCCACGGTAAATATT | 1.2
TCTCTCTCTCTTTCTTCCCCCACTCCAAGT | 5.09
CCAAATTCCAGCTGAAGTTCCCAGCCCTTC | -0.272
CAGGGGTCATCAGATAGATGGTCAGTGAAC | 1.44
GGCGACCTTCGCTCGGCTCGCTCTCCCTGC | -0.986
CCAGTGGTCCCTGGAGATAATAGTGGCTGA | -1.05
GTAAGGTCGACCTTTAAACGTTTGCTGGAT | 4.17
